# PubChem BioAssay AID1345083 (National Center for Advancing Translational Sciences (NCATS), 2018)
# The campaign covered roughly 94,000 compounds. About 6,200 (6.6%) were called active. The shares of active, inactive and inconclusive entries below differ from those in the screen. The call rests on the fitted dose curve; in most records, active means well fitted inhibition curve with a large enough effect; inconclusive means small, poorly fitted or top-dose-only effect; inactive means flat fitted curve, though single readings scatter. Where the call is inconclusive, the potency comes from a doubtful curve fit.
# Assay: Cytotoxic Profiling in HEK 293 Cell Line of Diverse Libraries Using Quantitative High-Throughput Screening; further: nearly all actives have a fitted effect of over 60% in size
# Conditions: HEK 293 viability, ATP luminescence (CellTiter-Glo), 48-72 h; activity change, negative = cytotoxicity: at 115 µM (top of the series) unless noted; series mostly up to 115 µM
# Outline: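 250 HEK 293 cells/well; compound by pintool; incubated 48 or 72 hr at 37 degree Celsius; CellTiter-Glo added, 10 min RT, luminescence imaged.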
# On the % scale 0 is the no-effect control and ±100 the full control effect; potency means the concentration at half of the fitted maximal effect; tags describe the fitted curve by direction and shape.
Compound,"activity change, negative = cytotoxicity",Potency,outcome
CC(=O)N1CCC(C(=O)N2CCCCCCNC(=O)[C@@H]3CCCC[C@@H]32)CC1,inactive: -7.66%,–,–
O=C(c1ccccc1F)N1CCn2c(nn(-c3ccc([N+](=O)[O-])cc3)c2=O)C1,–,"inconclusive: 50.1 µM [inhibitor, partial curve, poor fit]",–
Cc1noc(C)c1[S+](=O)([O-])N1CCC2OCCN(Cc3ccccc3)C(=O)C2C1 (stereo not drawn),–,"inconclusive: 112 µM [inhibitor, partial curve, poor fit]",–
CCN1C[C@H]2COc3ccccc3[C@H]2N(C(=O)COc2ccccc2)CCC1=O,inactive: -8.61%,–,–
O=C(CC1CCOCC1)NCc1cccc(F)c1,inactive: -3.65%,–,–
O=C(Cc1ccsc1)N1CCC(OCC2CC2)C1 (stereo not drawn),–,–,inactive
CO[C@H]1[C@H](NC(=O)c2cc(C)nn2C)c2ccccc2C12CCNCC2,inactive: 0.774%,–,–
Cn1ncc2c(C(=O)NCC(F)(F)F)cc(-c3ccccc3F)nc21,–,"inconclusive: 79.4 µM [inhibitor, partial curve, poor fit]",–
O=C(Nc1ccccc1)N1CC(Oc2ccc(-c3noc(-c4ccncc4)n3)cc2)C1,–,"inconclusive: 112 µM [inhibitor, partial curve, poor fit]",–
CC1(COc2ccccc2)COc2ccc(C(=O)NCCOc3ccccc3)cc2N1 (stereo not drawn),–,active: 79.4 µM,–
CN(C)C(=O)N1CCN(C(=O)c2cccc(-c3ccccn3)c2)CC1,inactive: -14.7% [at 172 µM],–,–
Cn1ccnc1C(=O)N1CCC2(CC1)CC(N(Cc1ccccc1)C1CC1)CCO2 (stereo not drawn),–,"inconclusive: 56.2 µM [inhibitor, partial curve, poor fit]",–
CCOc1ccc(CC(=O)N2CCC[C@H]2c2nc(-c3ccc(OC)c(OC)c3)no2)cc1,–,"inconclusive: 89.1 µM [inhibitor, single point]",–
OCC1CN(c2ccncn2)CC12CCN(Cc1cccc(F)c1F)CC2 (stereo not drawn),–,"inconclusive: 35.5 µM [inhibitor, partial curve, poor fit]",–
CN(C)c1cccc(-c2cc(C(=O)NCCc3ccccn3)c3c(c2)ncn3C)c1,–,"inconclusive: 100 µM [inhibitor, partial curve]",–
COc1cccc(C(=O)N2CCc3[nH]nc(C(=O)NCCCc4ccccc4)c3C2)c1,–,"inconclusive: 50.1 µM [inhibitor, partial curve, poor fit]",–
CC(C)c1nc2c(c(-c3ccc(Cl)cc3)n1)CN(C(=O)C(C)(C)C)CC2,–,active: 39.8 µM,–
COCCN1C[C@H]2CN(Cc3ccc(C(F)(F)F)cc3)CCN2C1=O,–,"inconclusive: 89.1 µM [inhibitor, partial curve, poor fit]",–
Cc1ccc(C2NC(=O)N(CC(=O)Nc3ccccc3C(C)C)C3=C2C(=O)OC3)cc1 (stereo not drawn),–,"inconclusive: 25.1 µM [inhibitor, full curve]",–
c1ccc(-c2cc(CC3(NCc4ccc5c(c4)OCO5)COC3)no2)nc1,inactive: -29.6% [at 172 µM],–,–
c1cncc(C2=NOC3(CCN(Cc4cccc5ccccc45)CC3)C2)c1,–,"inconclusive: 50.1 µM [inhibitor, partial curve, poor fit]",–
COc1cccc(C(=O)N2CCCC3(CN[S+](=O)([O-])c4cnccc4N3)C2)c1 (stereo not drawn),inactive: 4.24%,–,–
CCN(Cc1ccccc1)C(=O)CN1CCCc2nc(C3CC3)ncc2C1=O,–,"inconclusive: 79.4 µM [inhibitor, single point]",–

Compound,"activity change, negative = cytotoxicity",Potency,outcome
O=C(c1cccs1)N1CCc2nc(OCC3CC3)ccc2C1,–,"inconclusive: 79.4 µM [inhibitor, partial curve]",–
Cc1cccc(NC(=O)CN2CC3CC(C2)[C@H]2CCCC(=O)N2C3)c1 (stereo partly drawn),–,"inconclusive: 89.1 µM [inhibitor, single point]",–
O=C(Cc1ccccn1)N1CCCN(c2nc3ncccc3o2)CC1,inactive: -22.4%,–,–
CN(C(=O)c1ccc2c(c1)NC(C)(COCC1CC1)CO2)c1ccccc1 (stereo not drawn),–,"inconclusive: 79.4 µM [inhibitor, partial curve]",–
COCCOc1ncccc1-c1noc([C@@H]2CCCN2Cc2ccc(C(=O)O)cc2)n1,inactive: 4.4% [at 172 µM],–,–
O=C(C1CC1)N1CCN(c2ccc3nnc(-c4ccccc4)n3n2)CC1,–,"inconclusive: 100 µM [inhibitor, partial curve, poor fit]",–
NC1CCCCN(C(=O)c2scc3c2CCCC3)C1 (stereo not drawn),–,"inconclusive: 89.1 µM [inhibitor, partial curve]",–
COc1ccc(-c2cnc3n[nH]c(-c4ccc(OC)c(F)c4)c3n2)cn1,–,"inconclusive: 35.5 µM [inhibitor, partial curve, poor fit]",–
COc1ccc(-c2cc(N3CCCC(NC(=O)COc4ccccc4)C3)n[nH]2)cc1 (stereo not drawn),–,"inconclusive: 50.1 µM [inhibitor, partial curve, poor fit]",–
O=C(CC1CCOC2(CCN(Cc3ccsc3)CC2)C1)N1CCCC1 (stereo not drawn),inactive: -12.2%,–,–
Cc1ccc(NC(=O)C2CCc3nnc(-c4cccc(C(F)(F)F)c4)n32)cc1 (stereo not drawn),–,"inconclusive: 50.1 µM [inhibitor, partial curve, poor fit]",–
O=C(c1ccccc1F)N1CCC2(CC1)CC(c1cccc(C(F)(F)F)c1)=NO2,–,active: 39.8 µM,–
COc1ncccc1-c1cc(-c2c(C)noc2C)c2cncn2c1,–,"inconclusive: 79.4 µM [inhibitor, partial curve]",–
Cc1cc(C(=O)N2CCC(Cc3nc(-c4cccnc4)n[nH]3)C2)nn1C (stereo not drawn),inactive: 2.56%,–,–
COc1cccc(NC(=O)[C@@H]2C[C@@H](c3ccc(F)cc3)N(CCOc3ccccc3)C2)c1,–,active: 39.8 µM,–
O=C(CC1CCN(C(=O)NC2CCCCC2)C1)NCc1ccccc1 (stereo not drawn),inactive: -22.7%,–,–
CSc1cccc(NC(=O)Cn2cccc2-c2nc(-c3ccc4c(c3)OCO4)no2)c1,inactive: 5.54%,–,–
O=C(Nc1cccn2nc(C3CCC3)nc12)c1ccc(F)cc1,–,"inconclusive: 11.2 µM [inhibitor, full curve, poor fit]",–
O=C(Cc1ccsc1)N1CCCCCC1c1nc(-c2ccncc2)no1 (stereo not drawn),–,"inconclusive: 89.1 µM [inhibitor, single point]",–
COc1cccc(CN2CCC(N3CC(OCC4CC4)C34CCCCC4)CC2)n1 (stereo not drawn),–,"inconclusive: 50.1 µM [inhibitor, partial curve, poor fit]",–
CCN1c2cc(C(=O)NCc3ccccc3C(F)(F)F)ccc2C(=O)N2CCCCCC21 (stereo not drawn),–,active: 39.8 µM,–
Fc1ccccc1Nc1cnc2ccc(-n3ccnc3)nn12,–,"inconclusive: 100 µM [inhibitor, partial curve, poor fit]",–
CN(Cc1ccccc1)c1ncccc1CNC(=O)Nc1ccccc1F,inactive: -27.8%,–,–

Compound,"activity change, negative = cytotoxicity",Potency,outcome
Cc1ccc(NC(=O)Nc2ccc(C)n(CC(=O)NC3CCCC3)c2=O)cc1,–,"inconclusive: 39.8 µM [inhibitor, full curve, poor fit]",–
O=C(C1CCCN1C(=O)c1ccc(Cl)nc1)N1CCC(c2nc3ccncc3[nH]2)C1 (stereo not drawn),inactive: -5.54%,–,–
Cc1cc(C(=O)N2CCCC(CCc3c(F)cccc3F)C2)c(=O)n(C)c1C (stereo not drawn),–,"inconclusive: 35.5 µM [inhibitor, full curve]",–
OC(c1nc(Nc2cccc(C(F)(F)F)c2)n[nH]1)C1CC1 (stereo not drawn),–,"inconclusive: 56.2 µM [inhibitor, full curve]",–
Cc1ccc(CN2CC3(COCC2=O)CN(c2cnccn2)C3)cc1C,–,"inconclusive: 126 µM [inhibitor, single point]",–
COC(=O)[C@@H]1Cc2c([nH]c3ccccc23)[C@H]2C[C@@H](NCCN(C)C)C[C@@H](c3ccc(F)cc3)N21,–,active: 20 µM,–
COC(=O)c1ccc(CNC(=O)CC2c3cccnc3C(=O)N2c2ccccc2)cc1 (stereo not drawn),–,"inconclusive: 39.8 µM [inhibitor, single point]",–
Cc1cnc(C2CC2)n1C1CCN(C(=O)C(C)C)CC1,–,–,inactive
COc1ccc(CN2C(=O)[C@@H]3C[C@@H](CN3Cc3ccccc3OC)Oc3ccccc32)cc1,–,–,inactive
O=C(NC1CCN(c2cc(-c3ccccc3)[nH]n2)CC1)c1ccoc1,–,"inconclusive: 44.7 µM [inhibitor, partial curve, poor fit]",–
Cc1ccc(C(=O)NC2CCCN(c3cc(-c4ccc(Cl)cc4)[nH]n3)C2)cn1 (stereo not drawn),–,active: 28.2 µM,–
Cc1nnc(-c2cc(-c3ccccc3Oc3ccccc3)ccn2)n1C,–,active: 89.1 µM,–
CC(C)NC(=O)c1ccc2oc(-c3ccnc(Cl)c3)nc2c1,–,"inconclusive: 50.1 µM [inhibitor, partial curve, poor fit]",–
CSCCNC(=O)c1cc(-c2ccc([S+](C)(=O)[O-])cc2)c2cccn2n1,–,"inconclusive: 50.1 µM [inhibitor, partial curve, poor fit]",–
CN1CC(=O)N(C2CNC2)Cc2c1ncnc2N1CCCCC1,–,–,inactive
COCCCNc1cc(Cl)nc2ccnn12,–,"inconclusive: 126 µM [inhibitor, single point]",–
COc1cccc(C(=O)N2CCCC(c3nn(-c4ccc(F)cc4)c(=O)[nH]3)C2)c1 (stereo not drawn),–,"inconclusive: 50.1 µM [inhibitor, partial curve, poor fit]",–
COCCNC(=O)c1ccc2nc(-c3cccnc3)oc2c1,inactive: -8.4% [at 172 µM],–,–
Cc1ccccc1-c1[nH]nc2ncc(-c3cccc(O)c3)nc12,–,"inconclusive: 12.6 µM [inhibitor, full curve]",–
Cc1cccc(C)c1-c1nc(C(=O)NCCc2ccc(Cl)cc2)n2ccccc12,–,active: 50.1 µM,–
Cc1nc(N2CCC(C(=O)NCc3ccccc3Cl)CC2)cc(C(F)(F)F)n1,–,"inconclusive: 56.2 µM [inhibitor, partial curve, poor fit]",–
COc1ccc(NC(=O)Cn2cccc2-c2nc(-c3ccccc3)no2)c(OC)c1,–,"inconclusive: 89.1 µM [inhibitor, single point]",–
